Structures are written as SMILES.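 48-hour exposure; five concentrations; linearly interpolated endpoints. GI50 is the concentration that inhibits growth by half. TGI: concentration producing complete growth inhibition.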 Where only a bound is given, the exact number is not on record here.

The experiment concerns NCI-H322M lung. The experiment is described as follows: NCI-60 cell line screen, 48 h.
As to `C#CC1(O)CCC2[C@@H]3CCc4cc(Oc5nc(F)nc(-c6c7ccccc7cn6C)n5)ccc4C3CC[C@@]21C` (some centres not stated), the TGI was more than 100 µM. As for `CCN(CC)c1ccc2cc(C(=O)Nc3ccc(C)cc3)c(=N)oc2c1`, the TGI is more than 100 µM. Take `C[C@]12CCNC(=O)C=C1CC[C@@H]1C2CC[C@@]2(C)C1CC[C@@H]2OC(=O)COc1ccc(N(CCCl)CCCl)cc1` (some centres not stated): the TGI was found to be 35.4 µM. With `O=C(C[P+](c1ccccc1)(c1ccccc1)c1ccccc1)C[P+](c1ccccc1)(c1ccccc1)c1ccccc1`, the GI50 is 0.549 µM and the TGI was 1.7 µM. Turning to `CC1=C[C@H]2C[C@H](C)[C@H]3CC[C@H](C)[C@]4(C1)C(=O)C(O)=C(C)C(=O)[C@@]324`, the GI50 is 26.7 µM and the TGI was 88.1 µM. The molecule `Oc1[nH]c2ccccc2c1N=Nc1c(F)c(F)c(F)c(F)c1F` yielded a TGI of more than 100 µM. On to `Cc1cccc(C)c1Nc1nc(C)c(C(=O)CC(=O)C(=O)Nc2c(C(C)C)cccc2C(C)C)s1`, for which the TGI was more than 100 µM. With `COc1nc2c(c(=O)n1C)N=C(c1ccc(Cl)cc1)CC(c1ccccc1)N2` (configuration not stated), the TGI is more than 100 µM. On to `O=C(c1ccccc1)n1c(-c2ccccc2)cs/c1=N\S(=O)(=O)c1ccc(N2N=C3c4ccccc4CC3C2c2cccs2)cc1` (configuration not stated), for which the GI50 was 22.3 µM and the TGI was found to be 74.1 µM. Take `CC[C@H](C)C1=C(O)[N@+]2([O-])Oc3ccc(-c4c(O)c(O)c(-c5ccc(O)cc5)c(OC(C)=O)c4OC(C)=O)cc3O[C@]2([C@@H](C)CC)C(=O)N1O`: the TGI was more than 50 µM. On to `Cc1nc2sccn2c1C(=O)NC(=O)Nc1ccc(Cl)cc1`, for which the TGI was more than 100 µM. With `C#COc1cccc(Nc2ncnc3cc(NC(=O)[C@H](C)Cl)ccc23)c1`, the GI50 was 9.04 µM and the TGI is more than 62.5 µM.

`O=c1[nH]c(=O)n(C2OC(CO)C(O)C2O)cc1OCC(F)(F)F` (configuration not stated) yielded a TGI of more than 100 µM. Molecule `COc1cc(C2c3cc4c(cc3[C@@H](Oc3ccc(F)cc3)C3COC(=O)[C@H]23)OCO4)cc(OC)c1O` (some centres not stated) yielded a TGI of more than 100 µM. Molecule `O=S(=O)(O)c1ccc2c(N=Nc3ccc(Cl)cc3)c(O)ccc2c1` gave a TGI of more than 100 µM. In the case of `CCCN(CCC)c1c([N+](=O)[O-])cc(C(=O)N(CCO)CCO)cc1[N+](=O)[O-]`, the TGI was more than 100 µM. Turning to `NC(=Nc1ccc(N)cc1)C(N)=Nc1ccc(N)cc1`, the GI50 is more than 100 µM and the TGI was more than 100 µM.

On to `COc1cccc2cc(C(C)=O)c(=O)oc12`, for which the TGI was more than 100 µM. On to `COc1cc(-n2ccnc2)cc(OC)c1OC`, for which the GI50 was 30.5 µM and the TGI was more than 100 µM. The molecule `CC(C)(C)OC(=O)c1cccnc1/C=N/O` showed a TGI of more than 100 µM. In turn, `O=C(Nc1sccc1S(=O)(=O)c1ccccc1)c1ccccc1` came in with a TGI of more than 100 µM.

`CC1CN=C(c2cccc(-c3nc(-c4cccc(C5=NCC(C)N5)c4)nc(N(C)C)n3)c2)N1` (configuration not stated) returned a TGI of 3.08 µM. Turning to `Cc1ccc(-c2nc([P+](c3ccccc3)(c3ccccc3)c3ccccc3)c(Nc3ccccc3)o2)cc1`, the GI50 is 0.882 µM and the TGI worked out at 2.11 µM. `NNC(=O)c1ccc(OCc2nc3ccccc3[nH]2)cc1` showed a TGI of more than 100 µM.

`CCn1c(=O)c2nc(SC)sc2n(-c2ccccc2)c1=O` registered a TGI of more than 100 µM.

Consider `COc1cc(NCCN=C(N)NC(N)=NC(C)C)c2ncccc2c1`, for which the GI50 is 6.97 µM and the TGI was more than 73.8 µM. In turn, `COC(=O)/C=c1\s/c(=C\C(=O)OC)c2ccccc12` showed a TGI of more than 100 µM. The molecule `COc1cc2ccc1OCc1cccc(n1)COc1ccc(cc1OC)C=NCCNCCNCCN=C2` displayed a TGI of more than 100 µM. In the case of `COc1cccc2c1C(=O)OC2c1cccc2ccccc12` (configuration not stated), the TGI was more than 100 µM. The same measure, in the same setting: under `CCOC(=O)C(CNc1ccc(O)cc1)NC(=O)c1ccccc1` (configuration not stated) stands more than 100 µM. Molecule `Nc1nc(N)c2cc(Sc3cccc(C(F)(F)F)c3)ccc2n1` came in with a TGI of 15.9 µM. Consider `O=C(NNS(=O)(=O)c1ccccc1)c1cccnc1`, for which the TGI is more than 100 µM.

For the molecule `Cc1c(N2C(=O)/C(=C/c3ccc(N(CCC#N)CCC#N)cc3)N=C2c2ccccc2)c(=O)n(-c2ccccc2)n1C`, the TGI is more than 100 µM.

Consider `CCOC(=O)C(O)(C(=O)OCC)c1cc(C(C)(C)C)c(O)c(C(C)(C)C)c1`, for which the TGI is more than 100 µM. In turn, `COc1ccc(C(=O)N/N=C/c2c(C)n(C)n(-c3ccccc3)c2=O)cc1` had a TGI of more than 100 µM. Same read-out and setting: under `CN(/N=C/c1cccc2cccnc12)c1c([N+](=O)[O-])cc([N+](=O)[O-])cc1[N+](=O)[O-]` stands more than 100 µM. As for `Cc1cnc(Nc2ccc(N3CCN(C)CC3)cc2)nc1Nc1ccc(Cl)c(NS(=O)(=O)C(C)(C)C)c1`, the GI50 is 0.214 µM and the TGI is 15.6 µM. The molecule `COc1ccc2c3c1OC1C34CCN(C)C(C2)C4=CC(I)C1(OC)OC` (configuration not stated) displayed a TGI of 30.9 µM. Molecule `COc1ccc2[nH]c3c(C)cc([N+](=O)[O-])c(C)c3c2c1` came in with a TGI of 79.6 µM. The molecule `O=C1c2ccccc2C(=O)c2sc(Nc3ccccc3Cl)nc21` had a TGI of 29.3 µM. `CC(=O)NNc1nc(C)c(C(=O)NNC(=O)C(=O)Nc2ccc([N+](=O)[O-])cc2C#N)s1` registered a TGI of more than 100 µM. On to `CSc1c(CC(=O)Nc2ccc(Cl)cc2)n(Cc2ccccc2)c2ccccc12`, for which the TGI was more than 100 µM.

For the molecule `COc1ccc(Cn2cc3c(c2-c2ccccc2)CCc2cnoc2-3)cc1N`, the GI50 is 0.444 µM and the TGI is more than 100 µM. The corresponding values for `CCCCCCCC(=O)OCC(=O)[C@]1(O)Cc2c(O)c3c(c(O)c2[C@@H](OC2CC(N)C(O)C(C)O2)C1)C(=O)c1c(OC)cccc1C3=O` (some centres not stated) are 0.506 µM and 2.39 µM. Molecule `CC/C=C/C[C@H](O)[C@H]1C[C@H]2O[C@H](CC(=O)OC)C[C@H]2O1` displayed a TGI of more than 100 µM.

Consider `NC(=Nc1cccc(Cl)c1)c1ccccc1N`, for which the TGI was more than 100 µM. The same measure, in the same setting: the figure for `CCCCCCCCCCCCCC(=O)CSCCNC(=O)CCNC(=O)[C@@H](O)C(C)(C)COP(=O)(O)OP(=O)(O)OCC1OC(n2cnc3c(N)ncnc32)C(O)C1OP(=O)(O)O` (some centres not stated) is 42.2 µM; for `COc1ccc(-n2c(=O)n(-c3ccccc3)c(=O)n2-c2ccc(OC)cc2)cc1` it is more than 100 µM. Regarding `O=C(NCc1ccco1)c1cccc(NC2=C(Cl)C(=O)N(Cc3ccccc3)C2=O)c1`, the GI50 was 20.2 µM and the TGI was 60.9 µM. Molecule `Nc1c2c(nc3ccccc13)-c1ccccc1NCCC2` returned a TGI of more than 100 µM. Regarding `C[N+]1(CCC[N+]2(C)CC3C4C=CC(CC4)C3C2)CCOCC1` (configuration not stated), the TGI is more than 100 µM. `COc1cc(NC=C2C(=O)OC(C)(C)OC2=O)c(OC)c(C)c1OC`: the TGI is more than 100 µM. Still for that read-out and setting: under `Cn1c(=S)c2[nH]c(SCCN3C(=O)c4ccccc4C3=O)nc2n(C)c1=O` stands more than 100 µM; under `COC1CCC(=O)N1CN(C(C)=O)c1ccc(C)cc1` (configuration not stated), more than 100 µM; under `O=C1c2ccccc2C(=O)c2c(NCC3CO3)ccc(NCC3CO3)c21` (configuration not stated), more than 53.2 µM. The same measure, in the same setting: the figure for `O=C(C/C(CCC(=O)N(Cc1ccccc1)Cc1ccccc1)=N/Nc1ccc([N+](=O)[O-])cc1[N+](=O)[O-])c1ccccc1` is more than 100 µM. In the case of `O=c1cc(-c2ccccc2)oc2cc(OC/C(=N/O)c3ccc(F)cc3)ccc12`, the GI50 was 12.2 µM and the TGI was 38.6 µM.

In the case of `C=C(C)C(=O)O[C@@H]1C/C(C)=C\[C@H](OC(C)=O)C[C@](C)(O)/C=C2/OC(=O)C(COC(C)=O)=C21`, the TGI turned out to be 21.9 µM.

Take `O=C(N/N=C/c1cc(Cl)cc(Cl)c1[O-])c1ccccc1.O=C(N/N=C/c1cc(Cl)cc(Cl)c1[O-])c1ccccc1.[Co+2]`: the GI50 is 24.5 µM and the TGI was more than 100 µM. For `COC(=O)[C@@H]1CC(C(CN)c2cn(C(=O)OC(C)(C)C)c3ccccc23)C(=O)N1C(=O)OC(C)(C)C` (some centres not stated), the TGI is more than 100 µM. `C=CCOC(=O)C1CCC(=O)N1C(=O)C(Cl)Cl` (configuration not stated) registered a TGI of more than 100 µM.

Consider `Cc1cc(Cl)ccc1Nc1nc(C(F)(F)F)ccc1C(=O)N/N=C/c1ccccc1Cl`, for which the GI50 is 0.532 µM and the TGI is more than 21.8 µM. In turn, `CNC(=O)OC(COC)CN1CCN(c2ccccc2C)CC1` (configuration not stated) had a TGI of more than 10 µM. `O=C(CCc1nnc2s/c(=C\c3ccccc3Cl)c(=O)n12)Nc1cc(Cl)ccc1Cl` gave a TGI of more than 100 µM. Same read-out and setting: the figure for `O=C(Nc1cccc2ccccc12)c1ccccc1` is more than 100 µM; for `CCn1c2c(c3ccccc31)C(c1ccccc1)CC1C(=O)N(c3ccccc3)C(=O)C21` (configuration not stated) it is more than 100 µM. Take `COc1ccc(C(CC(=O)c2ccccc2)C(C(=O)c2ccccc2)C(c2ccc(OC)cc2)C2C(=O)NC(=S)NC2=O)cc1` (configuration not stated): the GI50 was 12.5 µM and the TGI was 54 µM. Turning to `CCOC(=O)C1([Se]c2ccccc2)CCCC1=O` (configuration not stated), the TGI was more than 100 µM. For `CC(C)(C)C1=CC(=C2C=Cc3ccccc3O2)C=C(C(C)(C)C)C1=O`, the TGI was found to be 29.3 µM. On to `CCOC(=O)c1cnn2c3ccccc3n(S(=O)(=O)c3ccc(OC)cc3)c12`, for which the GI50 was 1.81 µM and the TGI is more than 100 µM. For `CCOc1ccc(O)cc1[P+](c1ccccc1)(c1ccccc1)c1ccccc1`, the TGI came to 76.1 µM. `CC(CN(C)C)C(=O)c1ccccc1` (configuration not stated): the TGI was more than 100 µM. Regarding `CCOC(=O)CN1CC(C2=C(O)CN(CC(=O)OCC)C2=O)=CC1=O`, the TGI was more than 100 µM. Same read-out and setting: the figure for `NC(=O)c1c(NC=O)ncn1C1OCC(O)C(O)C1O` (configuration not stated) is more than 100 µM. Same read-out and setting: the figure for `CC12CCC3c4cc(Br)c(O)c(Br)c4CCC3C1CCC2O` (configuration not stated) is 34.2 µM; for `CCn1c2ccccc2c2ccc(C3C(C(=O)OC)=C(C)NC(C)=C3C(=O)OC)cc21` it is more than 100 µM. Regarding `COc1ccccc1NCc1cccc2c(=O)c3ccc(Cl)cc3oc12`, the TGI is more than 100 µM. With `NC(=S)N=Nc1c(O)c2ccccc2c2ccccc12`, the GI50 is 27.5 µM and the TGI is more than 86.8 µM. `Cc1ccc2[nH]c3[nH]c(=S)[nH]c(=O)c3c2c1` showed a TGI of more than 100 µM. For `O=S(=O)(/N=C(\NO)Nc1ccc(Cl)cc1)c1ccccc1`, the TGI amounted to 50.8 µM.

Regarding `Cc1ccc(C)c(NC(=O)CC2SC(=Nc3ccccc3Cl)NC2=O)c1` (configuration not stated), the TGI is more than 100 µM.

The molecule `CN(C)c1ccc(C(c2ccc(Cl)cc2)c2ccc(N(C)C)cc2)cc1` had a TGI of more than 100 µM.

Molecule `Cc1ccc(S(=O)(=O)N/N=C2/CC3CCC4CC2CC34)cc1` (configuration not stated) came in with a TGI of more than 100 µM. Still for that read-out and setting: the figure for `CC(C)(C)OC(=O)CN1CCN(CC(=O)N2CCN(C(=O)OCc3ccccc3)CC2)CCN(CC(=O)OC(C)(C)C)CCN(CC(=O)N2CCN(C(=O)OCc3ccccc3)CC2)CC1` is 29.8 µM.
